{"source": "paper PMC4336329", "about": "(PLoS ONE, 2015)", "note": "The campaign covered roughly 310,000 compounds. About 14,000 (4.5%) showed an effect of 50% or more. The effect is printed as a negative number. This is one part of the list.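 Also: peak tail current of the secondary pulse compared with the same well before compound.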", "data": [{"biological_target": "human ether-à-go-go-related gene (hERG) potassium channel (human, UniProt Q12809)", "sequence (Q12809 whole entry, looked up)": "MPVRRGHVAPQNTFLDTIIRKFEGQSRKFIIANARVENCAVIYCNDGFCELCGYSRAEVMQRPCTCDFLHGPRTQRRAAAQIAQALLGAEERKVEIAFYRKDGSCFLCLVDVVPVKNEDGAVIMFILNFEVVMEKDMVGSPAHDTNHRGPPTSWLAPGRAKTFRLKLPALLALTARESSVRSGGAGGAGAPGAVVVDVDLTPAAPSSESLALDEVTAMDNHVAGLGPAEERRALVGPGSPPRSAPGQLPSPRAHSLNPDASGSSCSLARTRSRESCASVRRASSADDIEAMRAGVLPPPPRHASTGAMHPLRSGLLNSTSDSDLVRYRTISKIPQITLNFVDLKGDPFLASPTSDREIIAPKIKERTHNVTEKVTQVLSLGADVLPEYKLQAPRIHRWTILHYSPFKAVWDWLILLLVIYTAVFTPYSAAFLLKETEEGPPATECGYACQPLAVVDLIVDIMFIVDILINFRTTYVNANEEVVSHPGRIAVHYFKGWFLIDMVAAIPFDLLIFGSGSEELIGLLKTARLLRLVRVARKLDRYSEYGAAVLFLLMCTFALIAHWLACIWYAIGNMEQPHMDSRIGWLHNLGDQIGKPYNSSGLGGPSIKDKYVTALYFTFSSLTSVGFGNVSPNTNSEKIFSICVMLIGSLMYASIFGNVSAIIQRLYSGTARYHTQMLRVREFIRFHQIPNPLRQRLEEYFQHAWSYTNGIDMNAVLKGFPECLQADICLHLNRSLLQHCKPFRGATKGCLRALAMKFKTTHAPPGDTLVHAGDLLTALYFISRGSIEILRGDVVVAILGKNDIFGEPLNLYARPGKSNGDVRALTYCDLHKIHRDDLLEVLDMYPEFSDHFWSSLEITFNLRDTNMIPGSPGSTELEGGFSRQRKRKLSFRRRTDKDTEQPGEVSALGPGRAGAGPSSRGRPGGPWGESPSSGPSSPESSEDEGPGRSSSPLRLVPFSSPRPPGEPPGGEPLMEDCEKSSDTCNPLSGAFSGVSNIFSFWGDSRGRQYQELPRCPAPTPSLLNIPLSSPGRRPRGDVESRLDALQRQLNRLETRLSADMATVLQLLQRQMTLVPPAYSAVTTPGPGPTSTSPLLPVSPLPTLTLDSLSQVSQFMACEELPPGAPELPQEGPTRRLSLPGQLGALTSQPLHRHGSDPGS", "experiment": "primary screen, population patch clamp on CHO cells stably expressing hERG", "units": {"hERG current change (%, negative = inhibition) at 10uM": "%"}, "values": [{"molecule": "CC[C@H](C)[C@@H]1NC(=O)c2cc([N+](=O)[O-])cc(F)c2NCCCC[C@@H](C(N)=O)NC(=O)[C@H](CCCCN)NC1=O", "hERG current change (%, negative = inhibition) at 10uM": 11.4}, {"molecule": "CCOC(=O)NC(=O)c1cn(CCNCCO)c(=O)[nH]c1=O", "hERG current change (%, negative = inhibition) at 10uM": 25.7}, {"molecule": "Cc1cccc(NC(=S)N2CCCCC2)c1", "hERG current change (%, negative = inhibition) at 10uM": -3.73}, {"molecule": "O=Cc1ccc(N2Cc3ccccc3C2)cc1", "hERG current change (%, negative = inhibition) at 10uM": 10.5}, {"molecule": "Cc1coc2c(O)cc3c(c12)OC1(N2CCCCC2)C(=O)NCCCC31", "note": "(stereo not shown)", "hERG current change (%, negative = inhibition) at 10uM": -3.64}, {"molecule": "O=C(NC1CCCCC1)C(c1ccncc1)N(Cc1ccc(F)cc1)C(=O)c1ccccn1", "note": "(stereo not shown)", "hERG current change (%, negative = inhibition) at 10uM": -5.49}, {"molecule": "COc1cccc(OC)c1NC(=O)NC(=O)c1c(OC)c(Br)cc([N+](=O)[O-])c1OC", "hERG current change (%, negative = inhibition) at 10uM": -13.6}, {"molecule": "O=c1cnnc(Nc2ccc(Cl)c(C(F)(F)F)c2)[nH]1", "hERG current change (%, negative = inhibition) at 10uM": 18.6}, {"molecule": "Cc1cc2cc3c(cc2nc1SCC(=O)Nc1ccccc1)CCC3", "hERG current change (%, negative = inhibition) at 10uM": -0.42}, {"molecule": "O=C(CCCCCN1C(=O)c2ccccc2C1=O)NCCc1nc2ccccc2[nH]1", "hERG current change (%, negative = inhibition) at 10uM": -5.88}, {"molecule": "Cc1ccc(-c2nnc(CCC(=O)NCC3C4CC5CC(C4)CC3C5)o2)s1", "note": "(stereo not shown)", "hERG current change (%, negative = inhibition) at 10uM": -6.1}, {"molecule": "COC(=O)CCNS(=O)(=O)c1ccc2ccccc2c1", "hERG current change (%, negative = inhibition) at 10uM": 8.33}, {"molecule": "O=C(Cc1ccccc1)Nc1ccc2oc(-c3ccncc3)nc2c1", "hERG current change (%, negative = inhibition) at 10uM": 0.815}, {"molecule": "COc1cccc(C(=O)Nc2nc3ccccc3[nH]2)c1", "hERG current change (%, negative = inhibition) at 10uM": 3.82}, {"molecule": "CCOc1ccc(NC(=O)c2cccc3c2C(=O)N(Cc2cccnc2)C3)cc1", "hERG current change (%, negative = inhibition) at 10uM": -22}, {"molecule": "Cc1ccccc1NC(=O)Cc1nc(COC(=O)c2nc(Cl)ccc2Cl)cs1", "hERG current change (%, negative = inhibition) at 10uM": -37.2}, {"molecule": "Cc1cc(C)c(S(=O)(=O)Nc2cnc3ccccc3c2)c(C)c1", "hERG current change (%, negative = inhibition) at 10uM": 11.7}, {"molecule": "CC(C)CCNC(=O)c1sc2ccc(S(=O)(=O)N3CCCCC3)cc2c1N", "hERG current change (%, negative = inhibition) at 10uM": -0.722}, {"molecule": "CCOc1ccc(NS(=O)(=O)c2ccc(C(=O)NCC(c3ccccc3OC)N3CCCC3)cc2)cc1", "note": "(stereo not shown)", "hERG current change (%, negative = inhibition) at 10uM": -26.6}, {"molecule": "CCN(CC)CCCNC(=O)c1cc2nc(-c3ccccc3)cc(C(F)(F)F)n2n1", "hERG current change (%, negative = inhibition) at 10uM": -8.1}, {"molecule": "COc1ccc2c3c(cccc13)N(C)N=C2C", "hERG current change (%, negative = inhibition) at 10uM": 0.0924}, {"molecule": "CC(Cc1ccccc1)C(=O)Nc1ccccc1", "note": "(stereo not shown)", "hERG current change (%, negative = inhibition) at 10uM": 0.888}, {"molecule": "CCCNC(=O)c1ccc(Cn2cc(-c3ccc(OC)cc3)nc2C(C)N)cc1", "note": "(stereo not shown)", "hERG current change (%, negative = inhibition) at 10uM": -15.2}, {"molecule": "COc1cc(C2C(C#N)=C(N)OC3=C2C(=O)CCC3)ccc1OC(=O)N1CCOCC1", "note": "(stereo not shown)", "hERG current change (%, negative = inhibition) at 10uM": 2.56}, {"molecule": "COc1ccc(Cl)cc1S(=O)(=O)N1CCCC1", "hERG current change (%, negative = inhibition) at 10uM": -11}, {"molecule": "COc1ccc(OCC(=O)Nc2cc(-c3nn(C)c(=O)c4ccccc34)ccc2N2CCOCC2)cc1", "hERG current change (%, negative = inhibition) at 10uM": 9.34}, {"molecule": "CC(=O)c1ccc(OCCCC(=O)Nc2cc(S(=O)(=O)N(C)C)ccc2C)cc1", "hERG current change (%, negative = inhibition) at 10uM": 0.514}, {"molecule": "O=C(O)c1ccc(-n2c(O)c(C=C3N=c4ccccc4=N3)sc2=S)cc1", "hERG current change (%, negative = inhibition) at 10uM": -4.72}, {"molecule": "Cc1cc(C)cc(NC(=O)C2CCCN(S(=O)(=O)c3c(C)noc3C)C2)c1", "note": "(stereo not shown)", "hERG current change (%, negative = inhibition) at 10uM": -4.34}, {"molecule": "CC1CCN(S(=O)(=O)c2ccc(NC(=O)CN3CCN(c4ccccc4)CC3)cc2)CC1", "hERG current change (%, negative = inhibition) at 10uM": -58.2}, {"molecule": "C=CCOc1cccc(C2/C(=C(/O)c3ccc4c(c3)CC(C)O4)C(=O)C(=O)N2CCN2CCOCC2)c1", "note": "(stereo not shown)", "hERG current change (%, negative = inhibition) at 10uM": 8.7}, {"molecule": "CCOC(=O)c1cnn(-c2ncnc3c2cnn3Cc2ccccc2)c1N", "hERG current change (%, negative = inhibition) at 10uM": 11.3}, {"molecule": "COc1ccccc1CNS(=O)(=O)c1cccs1", "hERG current change (%, negative = inhibition) at 10uM": 18.8}, {"molecule": "CCOC(=O)N1CCN(C(=O)Nc2ccc(Cl)cc2Cl)CC1", "hERG current change (%, negative = inhibition) at 10uM": 0.0383}, {"molecule": "COc1cc2c(cc1OC)-c1cc(OCc3ccccc3Cl)nc(=O)n1CC2", "hERG current change (%, negative = inhibition) at 10uM": -44.9}, {"molecule": "CC(=O)Nc1ccc(NC(=O)c2c(-c3ccccc3Cl)noc2C)c(C)c1", "hERG current change (%, negative = inhibition) at 10uM": 2.4}, {"molecule": "CCOC(=O)c1ccc(NC(=O)NS(=O)(=O)c2ccc(C)cc2)cc1", "hERG current change (%, negative = inhibition) at 10uM": 10.9}, {"molecule": "OC(c1ccncc1)(c1ccc(F)cc1)c1ccc(F)cc1", "hERG current change (%, negative = inhibition) at 10uM": 3.15}, {"molecule": "Cc1cccc(N/C(N)=N/c2nc3c(c(=O)[nH]2)CCCC3)c1", "hERG current change (%, negative = inhibition) at 10uM": -2.75}, {"molecule": "COC(=O)c1cc(-c2ccccc2)n(CC(=O)O)c1C", "hERG current change (%, negative = inhibition) at 10uM": 1.69}, {"molecule": "Cc1nc(C)c(-c2ccn(S(=O)(=O)c3ccc(Cl)cc3)n2)o1", "hERG current change (%, negative = inhibition) at 10uM": -19.7}, {"molecule": "CCOC(=O)c1ccc(NC(=S)NC(=O)COc2ccccc2)cc1", "hERG current change (%, negative = inhibition) at 10uM": 11}, {"molecule": "COc1ccccc1CNC(=S)Nc1ccc(S(N)(=O)=O)cc1", "hERG current change (%, negative = inhibition) at 10uM": 17.4}, {"molecule": "COc1cccc(-n2c(SCC(=O)N3CCCCC3)nc3c([nH]c4ccccc43)c2=O)c1", "hERG current change (%, negative = inhibition) at 10uM": 12.4}, {"molecule": "O=C(NCCc1nc2ccccc2[nH]1)/C(=C/c1ccco1)NC(=O)c1ccc(Br)o1", "hERG current change (%, negative = inhibition) at 10uM": -63.2}, {"molecule": "CCOc1ccccc1N1CCN(C/C=C/c2ccc(N(C)C)cc2)CC1", "hERG current change (%, negative = inhibition) at 10uM": -60.1}, {"molecule": "COC/C=C/C1=CC2=CC(=O)C(C)(OC(=O)c3ccco3)C(=O)C2=CO1", "note": "(stereo not shown)", "hERG current change (%, negative = inhibition) at 10uM": 23.9}, {"molecule": "COCCCn1c(SCC(=O)N(C)C)nnc1-c1ccccc1", "hERG current change (%, negative = inhibition) at 10uM": 21.5}, {"molecule": "CC(NC(=O)C(=O)N1CCCCC1)C(c1cccs1)N1CCN(C)CC1", "note": "(stereo not shown)", "hERG current change (%, negative = inhibition) at 10uM": 19.9}, {"molecule": "CC(C)(C)c1nnc2sc(SCC(=O)c3ccc4c(c3)OCCO4)nn2c1=O", "hERG current change (%, negative = inhibition) at 10uM": 26}, {"molecule": "Cn1c(N)c(C(=O)COC(=O)c2cc(S(=O)(=O)N3CCCCC3)ccc2Cl)c(=O)n(C)c1=O", "hERG current change (%, negative = inhibition) at 10uM": -10.3}, {"molecule": "CC(=O)Nc1ccccc1C(=O)C(=O)O", "hERG current change (%, negative = inhibition) at 10uM": 12.4}, {"molecule": "CN(CCNC(=O)CN1C(=O)CSc2ccc(S(=O)(=O)N3CCCC3)cc21)Cc1ccccc1", "hERG current change (%, negative = inhibition) at 10uM": -36.9}, {"molecule": "O=C(c1ccco1)N1CCN(c2ccnc3cc(Cl)ccc23)CC1", "hERG current change (%, negative = inhibition) at 10uM": -71.5}, {"molecule": "NS(=O)(=O)c1cc(C(=O)OCC(=O)c2ccccc2)c(Cl)cc1Cl", "hERG current change (%, negative = inhibition) at 10uM": 4.64}]}]}
